Among the data in article PMC7819943, “Rice protein-binding microarrays: a tool to detect cis-acting elements near promoter regions in rice” are binding signal values, retold here.

The list shows a part of the results.

This assay has as its target T1, OsWOX13 (Oryza sativa, UniProt Q5QMM3 1-267).
T1 sequence: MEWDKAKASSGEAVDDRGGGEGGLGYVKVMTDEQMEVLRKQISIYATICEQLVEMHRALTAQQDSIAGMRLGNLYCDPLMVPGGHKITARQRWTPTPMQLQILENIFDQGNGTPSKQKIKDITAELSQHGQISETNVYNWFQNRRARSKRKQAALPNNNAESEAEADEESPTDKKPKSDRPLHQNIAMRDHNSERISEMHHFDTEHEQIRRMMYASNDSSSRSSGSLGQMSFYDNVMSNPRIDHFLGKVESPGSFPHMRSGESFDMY
Description: protein-binding microarray (RPBM); PBS, 2% BSA, 51.3 ng/ul salmon testes DNA, 50 uM zinc acetate, 200 nM TF, 25 C, 1 h; high values mean tight binding. As to conditions: protein: recombinant; tags: N-terminal polyhistidine and DsRed monomer fusion (pET32a); label: CyDye5-dUTP incorporated in the synthesized complementary strand; 3' TTTTT single-stranded linker to array surface; dsDNA, one strand shown. An outline of the steps: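 The binding signal is fluorescence intensity per array feature (arbitrary units). Readings came from an Axon 4000B scanner after a washed, 2% BSA-blocked, double-stranded custom Agilent array had been incubated for 1 h at 25 °C with 200 nM protein and 50 µM zinc acetate. The protein was a Ni–NTA-purified transcription factor fused N-terminally to polyhistidine and DsRed, expressed in E. coli BL21-CodonPlus.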
“AATGATTTATAGGTAAAACTTTTGCACATGTATTTTAGCGCGGAGTCACCTAGTGCAG”: the binding signal is 30100 fluorescence intensity (a.u.).

With “ATGATTGGTTGTGAAAAGAATATAGGTGAAGTTTATATTTCGGAGTCACCTAGTGCAG”, the binding signal is 37700 fluorescence intensity (a.u.).

As for “TACGTAATATTTAAATAATCAATTATTTGATTATATATATCGGAGTCACCTAGTGCAG”, the binding signal is 15200 fluorescence intensity (a.u.).

For “GCTAAAATTAGAAGTTTAATTGAAATTGAAACAATGTGACCGGAGTCACCTAGTGCAG”, the binding signal was 51200 fluorescence intensity (a.u.).

With “GGTCTGATTGCAGAGAAAGAGGAGCTAATGAACAGTATGACGGAGTCACCTAGTGCAG”, the binding signal was 14700 fluorescence intensity (a.u.).

On to “TTGATAATTTGTTTTAGGTACATGCTCTTTAGTTTGTACTCGGAGTCACCTAGTGCAG”, for which the binding signal was 32400 fluorescence intensity (a.u.).

With “CCGCGTTGAAAGTCTTCGCAGGCGGCCACCTTCTCCTCGCCGGAGTCACCTAGTGCAG”, the binding signal was 4140 fluorescence intensity (a.u.).

“CAAATAGCCCTGATTTGTCGTCAAAGATTAGGGACACCAGCGGAGTCACCTAGTGCAG”: the binding signal was 8180 fluorescence intensity (a.u.).

On to “GTAATTTTGGTATGATTTAATAACTAAATTTGCACCTCAACGGAGTCACCTAGTGCAG”, for which the binding signal is 25400 fluorescence intensity (a.u.).

For the sequence “GGACTAAACTAAAATGATTGGAATCCAAGAAGCTATCTTACGGAGTCACCTAGTGCAG”, the binding signal was 12200 fluorescence intensity (a.u.).

“CTAATAATTCGGCAATCATGCACTAAACAGTGCATTAGTACGGAGTCACCTAGTGCAG”: the binding signal is 9420 fluorescence intensity (a.u.).

Consider “GGTTGAAATTAGAACGATGTGATAGAAAAGTTGAAAGTTTCGGAGTCACCTAGTGCAG”, for which the binding signal was 7220 fluorescence intensity (a.u.).

For the sequence “CTGTGAATTGATTCATCTCTCACACATGGTTCTCCACTATCGGAGTCACCTAGTGCAG”, the binding signal was 9680 fluorescence intensity (a.u.).

Regarding “TTTGATGTGATAGAAAAGTTGGAAGTTTAAAGAAATATTTCGGAGTCACCTAGTGCAG”, the binding signal was 13100 fluorescence intensity (a.u.).

Turning to “CTTGGATTGCCATAACACGACCGCGAAAGACCAAAATCATCGGAGTCACCTAGTGCAG”, the binding signal was 3670 fluorescence intensity (a.u.).

As to “AGCAATTGAAGTTAACTCTGGTGCTTCTGTTGATGTCGGTCGGAGTCACCTAGTGCAG”, the binding signal is 3690 fluorescence intensity (a.u.).

On to “TTAATAGATGACGCCGTTAATCTTTAATATCACGTTTGACCGGAGTCACCTAGTGCAG”, for which the binding signal is 7380 fluorescence intensity (a.u.).

Take “AAAGGGATGAGATTGAAGCAATTCCCGTGACTAGAAAACGCGGAGTCACCTAGTGCAG”: the binding signal is 3320 fluorescence intensity (a.u.).

Turning to “TAAAATTATATATTAATTGATATTTCTATATATATTGTAACGGAGTCACCTAGTGCAG”, the binding signal was 49700 fluorescence intensity (a.u.).

Regarding “TGTGATAGGGACTTGAAAAGTTTTAGTCCCACGCCTTATCCGGAGTCACCTAGTGCAG”, the binding signal was 4900 fluorescence intensity (a.u.).

Take “CAGACTTAGTTAATTATTGGACGGCAATGACTTATGCAATCGGAGTCACCTAGTGCAG”: the binding signal is 10600 fluorescence intensity (a.u.).

As to “GCAAGAGATTGGAGGGGAGAATGAAATCTCCATTTTCGTTCGGAGTCACCTAGTGCAG”, the binding signal is 6550 fluorescence intensity (a.u.).

For the sequence “CCTAATTAATCCGTCAGTAGCAAATATTTACTGTAGCACCCGGAGTCACCTAGTGCAG”, the binding signal is 17600 fluorescence intensity (a.u.).

For the sequence “GTTTCTTATCAGTCCTGATTATCATTAACCCACTGAATAACGGAGTCACCTAGTGCAG”, the binding signal was 4280 fluorescence intensity (a.u.).

As for “TGAGAATGATTGCAACCTGGCTTCACCAGACACCAAGCTGCGGAGTCACCTAGTGCAG”, the binding signal is 19400 fluorescence intensity (a.u.).

For the sequence “CACCGTCCCATTACAGCATGATTAACTAAAGATTCTTGTTCGGAGTCACCTAGTGCAG”, the binding signal is 8860 fluorescence intensity (a.u.).

Consider “TGTCTTCAATTAGCATCTACACTAATCATCTCAATTTCTCCGGAGTCACCTAGTGCAG”, for which the binding signal is 12300 fluorescence intensity (a.u.).

Take “GTCGAATTATTTAGCCGATTGGATCACCGGTTTCAAAGGCCGGAGTCACCTAGTGCAG”: the binding signal was 3360 fluorescence intensity (a.u.).

In the case of “CTCTCGATTGATTACCTAGTACTACTGCAATTCACATTGTCGGAGTCACCTAGTGCAG”, the binding signal is 52200 fluorescence intensity (a.u.).

For the sequence “GTAGTCTAATAACAAAATAAATTACAGATTCCGTCAGGAACGGAGTCACCTAGTGCAG”, the binding signal was 4660 fluorescence intensity (a.u.).

As to “CCTGCTAAAGGGAATCAATCATTTCATCCATTCAACACTGCGGAGTCACCTAGTGCAG”, the binding signal was 4940 fluorescence intensity (a.u.).

With “TGCTAATTATAATCCATACTAATAATCAAACGACCTCCCCCGGAGTCACCTAGTGCAG”, the binding signal was 48000 fluorescence intensity (a.u.).

For “CCACCGTGATTTTCGCTCCCATCACCGCGCGAGGACTCCGCGGAGTCACCTAGTGCAG”, the binding signal was 3320 fluorescence intensity (a.u.).

Take “CATTTGACTGAACAAGAACAGTAGGATCAATCTTTGTGCACGGAGTCACCTAGTGCAG”: the binding signal was 16900 fluorescence intensity (a.u.).

On to “GTGATTACTTGTACTAATTTGTAAACCGTGTGAGCGTCCGCGGAGTCACCTAGTGCAG”, for which the binding signal is 43100 fluorescence intensity (a.u.).

For the sequence “GCTTCATAGTCAATTTTCAACTAAACAGCCATGCTGCTTCCGGAGTCACCTAGTGCAG”, the binding signal is 4810 fluorescence intensity (a.u.).

Consider “AAACTTATAATTTTGGTGTGAAATAAACACATGCTAGTAGCGGAGTCACCTAGTGCAG”, for which the binding signal was 3190 fluorescence intensity (a.u.).

Consider “CGATTGATTGATTCTTGGTGCTCACTATCTCTAAATTGATCGGAGTCACCTAGTGCAG”, for which the binding signal is 59600 fluorescence intensity (a.u.).

In the case of “TAGTTAATTGTATTATGGAACATCTAAGAAAAGTAGTTGTCGGAGTCACCTAGTGCAG”, the binding signal is 31500 fluorescence intensity (a.u.).

On to “AATAATAAAGTAATTATAATTAGAGAAGGTGAATGACAAGCGGAGTCACCTAGTGCAG”, for which the binding signal was 26400 fluorescence intensity (a.u.).

For “AAATTTTGTGGTATTCTTTGATTGGAGAAAATGTTTGTTACGGAGTCACCTAGTGCAG”, the binding signal is 6140 fluorescence intensity (a.u.).

Take “AATATACAAGTTTTGTGATTAAATTGTTATTAAACCGGTACGGAGTCACCTAGTGCAG”: the binding signal was 6190 fluorescence intensity (a.u.).
